The other results are listed elsewhere or left out. Sequences were assembled here from the parent chain. Inactive controls read about 0.05.
B1: TEV protease; numbered along this chain (parent)
chain: MGESLFKGPRDYNPISSSICHLTNESDGHTTSLYGIGFGPFIITNKHLFRRNNGTLVVQSLHGVFKVKDTTTLQQHLVDGRDMIIIRMPKDFPPFPQKLKFREPQREERICLVTTNFQTKSMSSMVSDTSCTFPSGDGIFWKHWIQTKDGQCGSPLVSTRDGFIVGIHSASNFTNTNNYFTSVPKNFMELLTNQEAQQWVSGWRLNADSVLWGGHKVFMVKPEEPFQPVKEATQL

Variants of: B1
Experiment: raw area under fraction-flipped curve 0-4 h after induction (AUC4h, not background-subtracted), DNA-recorder readout of cleavage of the substrate (dimensionless); higher = more cleavage of the substrate by the protease variant
Details: temperature: 34 °C; time window: 0-4 h after rhamnose induction
Method: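 In vivo DNA recorder in E. coli TOP10(DE3) ΔrhaA at 34 °C. Each TEVp single-site mutant (parent TEVp 0) is paired with a single-site variant of the 7-mer TEVs (canonical ENLYFQ|S). The substrate sits between flexible linkers in a Bxb1-sfGFP-TEVs-SsrA fusion, so cleavage stabilises Bxb1 and speeds flipping of a recombination array, read by NGS. The value is the raw area under the fraction-flipped curve over 0-4 h after rhamnose induction (AUC4h), with ≥20 reads per time point. It is not background-subtracted; inactive controls average about 0.047.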
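Note: Bxb1 expression induced with 0.2% (w/v) L-rhamnose at OD600 near 0.5, cultures sampled hourly, flipped fraction per protease–substrate barcode pair counted by paired-end Illumina sequencing.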

Variant: MGESLFKGPRDYNPISSSICHLTNESDGHTTSLYGIGFGPFIITNKHLFRRNNGTLVVQSLHGVFKVKDTTTLQQHLVDGRDMIIIRMPKDFPPFPQKLKFREPQREERICLVTTNFQTKSMSSMVSDTSCTFPSGDGIFWKHWIQTKDGQCGSPLVSTRDGFIVGIHSASQFTNTNNYFTSVPKNFMELLTNQEAQQWVSGWRLNADSVLWGGHKVFMVKPEEPFQPVKEATQL [N172Q]
- area with substrate ENLYFAS: 0.0824
- area with substrate ENLYFFS: 0.0666
- area with substrate ENLYFIS: 0.0505
- area with substrate ENLYFPS: 0.0669
- area with substrate ENLYFRS: 0.082
- area with substrate ENLYFWS: 0.0273

Variant: MGESLFKGPRDYNPISSSICHLTNESDGHTTSLYGIGFGPFIITNKHLFRRNNGTLVVQSLHGVFKVKDTTTLQQHLVDGRDMIIIRMPKDFPPFPQKLKFREPQREERICLVTTNFQTKSMSSMVSDTSCTFPSGDGIFWKHWIQTKDGQCGSPLVSTRDGFIVGIHSASRFTNTNNYFTSVPKNFMELLTNQEAQQWVSGWRLNADSVLWGGHKVFMVKPEEPFQPVKEATQL [N172R]
- area with substrate ENLYFAS: 0.0568
- area with substrate ENLYFCS: 0.0532
- area with substrate ENLYFGS: 0.0485
- area with substrate ENLYFHS: 0.0577
- area with substrate ENLYFIS: 0.0538
- area with substrate ENLYFKS: 0.0644
- area with substrate ENLYFLS: 0.0596
- area with substrate ENLYFMS: 0.0623
- area with substrate ENLYFNS: 0.0563
- area with substrate ENLYFPS: 0.0686
- area with substrate ENLYFSS: 0.0639
- area with substrate ENLYFTS: 0.0661
- area with substrate ENLYFWS: 0.0559
- area with substrate ENLYFYS: 0.0627

Variant: MGESLFKGPRDYNPISSSICHLTNESDGHTTSLYGIGFGPFIITNKHLFRRNNGTLVVQSLHGVFKVKDTTTLQQHLVDGRDMIIIRMPKDFPPFPQKLKFREPQREERICLVTTNFQTKSMSSMVSDTSCTFPSGDGIFWKHWIQTKDGQCGSPLVSTRDGFIVGIHSASNFTNTNNYFTHVPKNFMELLTNQEAQQWVSGWRLNADSVLWGGHKVFMVKPEEPFQPVKEATQL [S182H]
- area with substrate ENLYFAS: 0.0668
- area with substrate ENLYFDS: 0.0638
- area with substrate ENLYFES: 0.0551
- area with substrate ENLYFGS: 0.0612
- area with substrate ENLYFHS: 0.0538
- area with substrate ENLYFIS: 0.0578
- area with substrate ENLYFKS: 0.0491
- area with substrate ENLYFMS: 0.0472
- area with substrate ENLYFPS: 0.0574
- area with substrate ENLYFRS: 0.0433
- area with substrate ENLYFTS: 0.059
- area with substrate ENLYFWS: 0.0379
- area with substrate ENLYFYS: 0.0383

Variant: MGESLFKGPRDYNPISSSICHLTNESDGHTTSLYGIGFGPFIITNKHLFRRNNGTLVVQSLHGVFKVKDTTTLQQHLVDGRDMIIIRMPKDFPPFPQKLKFREPQREERICLVTTNFQTKSMSSMVSDTSCTFPSGDGIFWKHWIQTKDGQCGSPLVSTRDGFIVGIHSASNFTNTNNYFTEVPKNFMELLTNQEAQQWVSGWRLNADSVLWGGHKVFMVKPEEPFQPVKEATQL [S182E]
- area with substrate ENLYFAS: 0.0614
- area with substrate ENLYFDS: 0.0483
- area with substrate ENLYFES: 0.0568
- area with substrate ENLYFGS: 0.0081
- area with substrate ENLYFHS: 0.0426
- area with substrate ENLYFIS: 0.0528
- area with substrate ENLYFKS: 0.0559
- area with substrate ENLYFPS: 0.0548
- area with substrate ENLYFRS: 0.0648
- area with substrate ENLYFWS: 0.0512
- area with substrate ENLYFYS: 0.0614

Variant: MGESLFKGPRDYNPISSSICHLTNESDGHTTSLYGIGFGPFIITNKHLFRRNNGTLVVQSLHGVFKVKDTTTLQQHLVDGRDMIIIRMPKDFPPFPQKLKFREPQREERICLVTTNFQTKSMSSMVSDTSCTFPSGDGIFWKHWIQTKDGQCGSPLVSTRDGFIVGIHSASNFTNTNNYFTFVPKNFMELLTNQEAQQWVSGWRLNADSVLWGGHKVFMVKPEEPFQPVKEATQL [S182F]
- area with substrate ENLYFAS: 0.0524
- area with substrate ENLYFDS: 0.0552
- area with substrate ENLYFES: 0.0562
- area with substrate ENLYFFS: 0.0612
- area with substrate ENLYFHS: 0.0406
- area with substrate ENLYFIS: 0.0539
- area with substrate ENLYFMS: 0.0648
- area with substrate ENLYFNS: 0.0564
- area with substrate ENLYFRS: 0.0501
- area with substrate ENLYFSS: 0.056
- area with substrate ENLYFVS: 0.0497
- area with substrate ENLYFYS: 0.0392

Variant: MGESLFKGPRDYNPISSSICHLTNESDGHTTSLYGIGFGPFIITNKHLFRRNNGTLVVQSLHGVFKVKDTTTLQQHLVDGRDMIIIRMPKDFPPFPQKLKFREPQREERICLVTTNFQTKSMSSMVSDTSCTFPSGDGIFWKHWIQTKDGQCGSPLVSTRDGFIVGIHSASNFTNTNNYFTSVPVNFMELLTNQEAQQWVSGWRLNADSVLWGGHKVFMVKPEEPFQPVKEATQL [K185V]
- area with substrate ENLYFAS: 0.0589
- area with substrate ENLYFDS: 0.0561
- area with substrate ENLYFES: 0.0822
- area with substrate ENLYFIS: 0.0614
- area with substrate ENLYFVS: 0.0764
- area with substrate ENLYFWS: 0.0498

Variant: MGESLFKGPRDYNPISSSICHLTNESDGHTTSLYGIGFGPFIITNKHLFRRNNGTLVVQSLHGVFKVKDTTTLQQHLVDGRDMIIIRMPKDFPPFPQKLKFREPQREERICLVTTNFQTKSMSSMVSDTSCTFPSGDGIFWKHWIQTKDGQCGSPLVSTRDGFIVGIHSASNFTNTNNYFTSVPANFMELLTNQEAQQWVSGWRLNADSVLWGGHKVFMVKPEEPFQPVKEATQL [K185A]
- area with substrate ENLYFAS: 0.0599
- area with substrate ENLYFCS: 0.121
- area with substrate ENLYFES: 0.0643
- area with substrate ENLYFIS: 0.0503
- area with substrate ENLYFMS: 0.0721
- area with substrate ENLYFNS: 0.0646
- area with substrate ENLYFPS: 0.044
- area with substrate ENLYFVS: 0.0653
- area with substrate ENLYFYS: 0.0459

Variant: MGESLFKGPRDYNPISSSICHLTNESDGHTTSLYGIGFGPFIITNKHLFRRNNGTLVVQSLHGVFKVKDTTTLQQHLVDGRDMIIIRMPKDFPPFPQKLKFREPQREERICLVTTNFQTKSMSSMVSDTSCTFPSGDGIFWKHWIQTKDGQCGSPLVSTRDGFIVGIHSASNFTNTNNYFTSVPKTFMELLTNQEAQQWVSGWRLNADSVLWGGHKVFMVKPEEPFQPVKEATQL [N186T]
- area with substrate ENLYFAS: 0.0616
- area with substrate ENLYFCS: 0.0648
- area with substrate ENLYFIS: 0.0528
- area with substrate ENLYFKS: 0.053
- area with substrate ENLYFMS: 0.0475
- area with substrate ENLYFNS: 0.0476
- area with substrate ENLYFSS: 0.0429

Variant: MGESLFKGPRDYNPISSSICHLTNESDGHTTSLYGIGFGPFIITNKHLFRRNNGTLVVQSLHGVFKVKDTTTLQQHLVDGRDMIIIRMPKDFPPFPQKLKFREPQREERICLVTTNFQTKSMSSMVSDTSCTFPSGDGIFWKHWIQTKDGQCGSPLVSTRDGFIVGIHSASNFTNTNCYFTSVPKNFMELLTNQEAQQWVSGWRLNADSVLWGGHKVFMVKPEEPFQPVKEATQL [N178C]
- area with substrate ENLYFAS: 0.0611
- area with substrate ENLYFES: 0.0726
- area with substrate ENLYFHS: 0.0498
- area with substrate ENLYFIS: 0.0637
- area with substrate ENLYFVS: 0.0108

Variant: MGESLFKGPRDYNPISSSICHLTNESDGHTTSLYGIGFGPFIITNKHLFRRNNGTLVVQSLHGVFKVKDTTTLQQHLVDGRDMIIIRMPKDFPPFPQKLKFREPQREERICLVTTNFQTKSMSSMVSDTSCTFPSGDGIFWKHWIQTKDGQCGSPLVSTRDGFIVGIHSASNFTNTNNYFTSGPKNFMELLTNQEAQQWVSGWRLNADSVLWGGHKVFMVKPEEPFQPVKEATQL [V183G]
- area with substrate ENLYFAS: 0.0434
- area with substrate ENLYFES: 0.049
- area with substrate ENLYFFS: 0.0572
- area with substrate ENLYFHS: 0.0556
- area with substrate ENLYFKS: 0.0551
- area with substrate ENLYFLS: 0.0099
- area with substrate ENLYFMS: 0.048
- area with substrate ENLYFNS: 0.0365
- area with substrate ENLYFPS: 0.0426
- area with substrate ENLYFWS: 0.0637
- area with substrate ENLYFYS: 0.0476

Reference: the supplement of paper PMC12217912
